# The campaign covered roughly 230,000 compounds. About 3,600 (1.6%) were called active. Inconclusive results, whose numbers are uncertain, are shown with a selection of clear calls. The call rests on the fitted dose curve; in most records, active means well fitted inhibition curve with a large enough effect (not every such curve was filed as active); inconclusive means small, poorly fitted or top-dose-only effect, or another doubt; inactive means no such curve, though single readings can be large or run the other way. Where the call is inconclusive, the potency comes from a doubtful curve fit.
# Biological target: Lysine-specific demethylase 4E (Homo sapiens) (UniProt B2RXH2)
# Chain of UniProt B2RXH2 (B2RXH2 whole entry, looked up, the tested form may be a part): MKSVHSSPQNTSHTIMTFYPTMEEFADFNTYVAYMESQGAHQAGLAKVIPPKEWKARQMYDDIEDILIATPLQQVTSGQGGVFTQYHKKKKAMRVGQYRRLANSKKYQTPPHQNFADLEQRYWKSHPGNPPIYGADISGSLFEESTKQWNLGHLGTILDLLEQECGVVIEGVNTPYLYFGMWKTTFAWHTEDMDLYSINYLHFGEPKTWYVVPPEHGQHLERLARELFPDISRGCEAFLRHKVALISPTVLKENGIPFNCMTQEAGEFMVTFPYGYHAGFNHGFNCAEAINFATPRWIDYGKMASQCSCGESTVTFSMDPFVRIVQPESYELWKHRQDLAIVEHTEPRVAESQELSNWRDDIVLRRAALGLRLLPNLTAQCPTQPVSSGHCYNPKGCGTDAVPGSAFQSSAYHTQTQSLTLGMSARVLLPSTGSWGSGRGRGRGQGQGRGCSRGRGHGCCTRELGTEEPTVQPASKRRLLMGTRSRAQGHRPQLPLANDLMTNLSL
# Assay: qHTS Assay for Inhibitors of Human Jumonji Domain Containing 2E (JMJD2E)
# Details: JMJD2E catalytic domain, FDH-coupled NADH fluorescence (FDH is formaldehyde dehydrogenase); series mostly up to 57.1 µM; activity change, negative = inhibition: at the top concentration
# Further: nearly all actives have a fitted effect of over 50% in size.
# Potency means the concentration at half of the fitted maximal effect; tags describe the fitted curve by direction and shape.
# 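Wherever activity change, negative = inhibition is given: 0% = wells with enzyme and -100% = buffer wells without enzyme.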
Compound,Potency,"activity change, negative = inhibition"
COc1ccc(-c2nnc(COc3ccc4ccccc4c3)o2)cc1OC,"inconclusive: 35.5 µM [inhibitor, single point]",–
Cc1cc(C(F)(F)F)n2[nH]c(=O)c(N=Nc3ccccc3)c2n1,"inconclusive: 39.8 µM [inhibitor, single point]",–
Cn1cnnc1SCC(=O)Nc1ccc2nc(SCc3ccccc3Cl)sc2c1,–,inactive: 2.67%
Cc1nc(NC(=O)COC(=O)c2ccc(S(=O)(=O)N3CCc4ccccc4C3)cc2)c(Cl)cc1Cl,"inconclusive: 35.5 µM [inhibitor, single point]",–
CCc1c(C)nc2cc(C)[nH]n2c1=O,"inconclusive: 25.1 µM [inhibitor, partial curve]",–
c1ccc(-c2nnc3sc(-c4cc5ccccc5o4)nn23)cc1,"inconclusive: 39.8 µM [inhibitor, single point]",–
CCC#CCOCC(=O)Nc1ccccc1,"inconclusive: 39.8 µM [inhibitor, single point]",–
CC1(C)CN=c2s/c(=C\c3ccc(Cl)cc3)c(=O)n2C1,"inconclusive: 35.5 µM [inhibitor, single point]",–
c1ccc(-c2cc3c(N4CCN(c5ccccc5)CC4)ncnc3s2)cc1,"inconclusive: 35.5 µM [inhibitor, partial curve]",–
O=C(NC(=S)N1CCN(c2ccc([N+](=O)[O-])cc2)CC1)c1ccc(F)cc1,–,inactive: -3.13%
CCOC(=O)N1CCC(=NNc2nc(C)cc(=O)[nH]2)CC1,–,inactive: -29.6%
CC(C)CNC1CS(=O)(=O)CC1O (centres undefined),–,inactive: 6.61%
NS(=O)(=O)c1ccc(CCNC(=O)c2cc(-c3cccs3)nc3ccccc23)cc1,"inconclusive: 28.2 µM [inhibitor, partial curve]",–
O=C(Nc1ccc(C2=NCCN2)cc1)c1ccc(C(=O)Nc2ccc(C3=NCCN3)cc2)c([N+](=O)[O-])c1,–,inactive: -6.6%
COc1ccc(-c2cc(C(=O)NCC3CCCO3)c3cc(C)ccc3n2)cc1 (centres undefined),"inconclusive: 31.6 µM [inhibitor, partial curve]",–
O=C(Nc1ccc(Cl)cc1)N1CCC(c2nc(-c3ccccc3Cl)no2)CC1,–,inactive: -6.18%
Nc1ccccc1-c1nnc(SCc2ccccc2Cl)[nH]c1=O,–,inactive: 1.88%
COc1ccc(-c2cc(C(F)(F)F)nc(-n3cc(Cl)cn3)n2)cc1,"inconclusive: 28.2 µM [inhibitor, partial curve]",–
N#C/C(Cn1c[n+](NC(=O)Nc2ccccc2)cn1)=N/O,–,inactive: -4.21%
Cc1ccc(NC(=O)c2cc(-c3cccs3)on2)cc1,"inconclusive: 35.5 µM [inhibitor, single point]",–
CN1C(=O)/C(=C/c2ccco2)SC1=Nc1cccc(C(=O)O)c1,"inconclusive: 20 µM [inhibitor, partial curve]",–
N#CCCn1c2ccccc2c2nc3ccccc3nc21,"inconclusive: 39.8 µM [inhibitor, single point]",–
OC1CCN(c2cc(-c3ccccc3)nc3cc(-c4ccc(F)cc4)nn23)CC1,"inconclusive: 35.5 µM [inhibitor, partial curve]",–

Compound,Potency,"activity change, negative = inhibition"
CCOc1ccc(C(CC(=O)O)NC(=O)C2c3ccccc3Oc3ccccc32)cc1 (centres undefined),–,inactive: 3.98%
O=C1CCCC/C1=C\Nc1ccccc1C(=O)O,"inconclusive: 25.1 µM [inhibitor, partial curve]",–
CN(C)c1cccc(C(=O)OCC(=O)Nc2ccccc2Cl)c1,"inconclusive: 35.5 µM [inhibitor, single point]",–
C=CCNC(=O)Cc1c(OC)ccc2cc(Br)ccc12,"inconclusive: 0.0251 µM [inhibitor, full curve]",–
CN1CCN(C2Cc3ccccc3Sc3ccc(Cl)cc32)CC1 (centres undefined),–,inactive: -14.4%
CNc1ccccc1C(C)(C)c1cc(-c2ccco2)n[nH]1,"inconclusive: 25.1 µM [inhibitor, partial curve]",–
CCCCc1cc2c(cn1)=C(OC(=O)c1cccs1)C(C)(OC(=O)CC)C(=O)C=2 (centres undefined),–,inactive: -2.16% [at 11.4 µM]
CC(C)COc1ccc(-c2cc(C(=O)NN)[nH]n2)cc1,–,inactive: 11%
Cc1ccc(S(=O)(=O)Nc2ccc(-c3nc4ccc(C)cc4s3)cc2)cc1,"inconclusive: 31.6 µM [inhibitor, partial curve]",–
Cc1ccc(-n2c(C)cc(C(=S)N3CCOCC3)c2C)cc1C,–,inactive: 6.57%
CCN(c1ccccc1)S(=O)(=O)c1cc(C(=O)OC(C)C(=O)Nc2ccc3c(c2)OCCO3)ccc1C (centres undefined),–,inactive: 0.862%
CCOc1ccc(-n2c(SCC(=O)NCc3ccco3)nnc2-c2c[nH]c3ccccc23)cc1,–,inactive: -5.37%
CC(C)[C@H]1C=C(C(=O)O)O[C@@H](OCCCCO)C1,"inconclusive: 39.8 µM [inhibitor, single point]",–
CC(C)c1ccc(CN(C(=O)C2COc3ccccc3O2)C2CCS(=O)(=O)C2)cc1 (centres undefined),–,inactive: -0.89%
Cc1nc(-c2ccc(Cl)cc2)sc1C1(C)CC(c2ccc(C#N)cc2)=NO1 (centres undefined),"inconclusive: 39.8 µM [inhibitor, single point]",–
O=S1(=O)NC(=NCC(c2ccco2)N2CCCCC2)c2ccccc21 (centres undefined),"inconclusive: 39.8 µM [inhibitor, single point]",–
O=C(NCCCCc1ccccc1)C1CC(c2ccccc2[N+](=O)[O-])=NO1 (centres undefined),–,inactive: -4.64%
COC(=O)c1[nH]c2ccccc2c1NC(=O)CN1CC(C)OC(C)C1 (centres undefined),"inconclusive: 35.5 µM [inhibitor, single point]",–
Cc1cc(C)n(-c2nc3sc4c(c3c3nnc(SCC(N)=O)n23)CC(C)(C)OC4)n1,"inconclusive: 31.6 µM [inhibitor, partial curve]",–
CCOC(=O)CC1=C(C(=O)OCC)C(c2ccc(OC)cc2OC)C(C#N)=C(N)O1 (centres undefined),"inconclusive: 15.8 µM [inhibitor, partial curve]",–
Cc1cc2cc3c(cc2nc1SCC(=O)O)OCCO3,"inconclusive: 31.6 µM [inhibitor, single point]",–
CCCCn1c(=NC(=O)c2ccco2)c(C(=O)OCC)cc2c(=O)n3cccc(C)c3nc21,"inconclusive: 22.4 µM [inhibitor, partial curve]",–
CCCS(=O)(=O)N1CCN(Cc2ccccc2[N+](=O)[O-])CC1,"inconclusive: 39.8 µM [inhibitor, single point]",–

Compound,Potency,"activity change, negative = inhibition"
COC(=O)c1ccccc1OCC(=O)N1CCN(c2ccc(F)cc2)CC1,–,inactive: 2.19%
CCN1CCN(c2cc(C)c3cc(NC(=O)c4ccc(OC)c(OC)c4)ccc3n2)CC1,"inconclusive: 25.1 µM [inhibitor, single point]",–
Cc1ccc(C)c(OCc2ccc(C(=O)N3N=C(C(F)F)CC3(O)C(F)F)o2)c1 (centres undefined),"inconclusive: 39.8 µM [inhibitor, single point]",–
Cc1[nH]n(C2=NCCS2)c(=O)c1N=Nc1cccc(C(F)(F)F)c1,"inconclusive: 31.6 µM [inhibitor, single point]",–
C=CCc1ccccc1OCCNCc1ccccc1,"inconclusive: 31.6 µM [inhibitor, single point]",–
CC(=O)Nc1ccc2oc(-c3cc(F)c(F)cc3Cl)nc2c1,"inconclusive: 10 µM [inhibitor, partial curve]",–
COc1ccc(NS(=O)(=O)c2cc(NC(=O)c3cccc(OCc4c(C)noc4C)c3)ccc2OC)cc1,"inconclusive: 35.5 µM [inhibitor, single point]",–
c1ccc2c(c1)CCN(c1ncnc3c1[nH]c1ccccc13)C2,"inconclusive: 25.1 µM [inhibitor, partial curve]",–
CCCCOc1ccc(C(=O)N/C(=C/C=C/c2ccccc2)C(=O)N2CCOCC2)cc1,"inconclusive: 39.8 µM [inhibitor, single point]",–
Nc1ccc(O)cc1C(=O)OCC(=O)c1ccc(C2CCCCC2)cc1,"inconclusive: 3.55 µM [inhibitor, full curve]",–
COc1ccc(/C=C/c2nnc(NC(=O)COc3ccc(C)cc3)s2)cc1,"inconclusive: 28.2 µM [inhibitor, partial curve]",–
N#Cc1c(N)nc2c(c1-c1ccccc1)CCC2,"inconclusive: 14.1 µM [inhibitor, partial curve]",–
C=CCSc1nnc(NC(=O)c2ccc(S(=O)(=O)NCC3CCCO3)cc2)s1 (centres undefined),"inconclusive: 35.5 µM [inhibitor, single point]",–
O=C(CN1CCOCC1)N1CCCc2c1c(=O)oc1ccc(OCc3ccccc3)cc21,"inconclusive: 35.5 µM [inhibitor, partial curve]",–
CCCCn1c(N)c(NCCC(C)C)c(=O)[nH]c1=O,"inconclusive: 39.8 µM [inhibitor, single point]",–
COc1ccc(-c2cc(C(F)F)n3ncc(C(=O)Nc4cnn(Cc5ccccc5)c4)c3n2)cc1,"inconclusive: 39.8 µM [inhibitor, single point]",–
O=C(c1cc2cc([N+](=O)[O-])ccc2oc1=O)N1CCOCC1,"inconclusive: 20 µM [inhibitor, partial curve]",–
Cc1nc(N)c(C#N)c(-c2ccccc2Cl)c1C,"inconclusive: 20 µM [inhibitor, partial curve]",–
COC(=O)c1[nH]c2cccc(Cl)c2c1NC(=O)CN(C)C1CCCCC1,"inconclusive: 35.5 µM [inhibitor, single point]",–
Cc1cc(N2CCOCC2)n2ncc(-c3ccccc3)c2n1,"inconclusive: 25.1 µM [inhibitor, single point]",–
CN(Cc1ccco1)c1ccnc(-c2ccoc2)n1,active: 25.1 µM,–
CC(=O)NCCNc1ncncc1-c1ccccc1C(F)(F)F,"inconclusive: 39.8 µM [inhibitor, single point]",–
CCC(=O)OCC(=O)C1(OC(=O)CC)C(C)CC2C3C(Cl)CC4=CC(=O)C=C[C@@]4(C)C3C(O)C[C@@]21C (some centres undefined),"inconclusive: 35.5 µM [inhibitor, single point]",–
